Out of some 360,000 compounds screened, about 2,600 (0.72%) were called active. The shares of active, inactive and inconclusive entries below differ from those in the screen. Calls come from the whole dose curve; as a rule, active = well fitted inhibition curve with a large enough effect; inconclusive = small, poorly fitted or top-dose-only effect; inactive = no such curve, though single readings can be large or run the other way. A potency beside an inconclusive call is a rough fit, not a confirmed value.
Assay: Primary qHTS for Inhibitors of ATXN expression; note: nearly all actives have a fitted effect of over 55% in size
Details: HEK-293 ATXN2-luciferase reporter, luminescence, 24 h; series mostly up to 57 µM
How it was run: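 ATXN2-luciferase reporter cells (luciferase flanked by upstream and downstream ATXN2 gene portions) were treated 24 h at 37 °C with compounds at up to 57 uM. SteadyGlo luminescence gave expression; GF-AFC fluorescence gave viability.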
Potency is the fitted concentration of half-maximal effect; tags give direction and shape of the fitted curve.

SMILES	Potency
CCc1noc(C)c1C(=O)Nc1nc(-c2ccc(OC)c(OC)c2)cs1	inconclusive: 35.5 µM [inhibitor, single point]
CC(=O)Oc1ccccc1Cn1c(C)c(C(=O)NCc2ccc(Cl)c(Cl)c2)sc1=O	inconclusive: 35.5 µM [inhibitor, single point]
COc1ccc(S(=O)(=O)Nc2ccccc2C(=O)Nc2nc(-c3ccc(F)cc3)cs2)cc1OC	inconclusive: 17.8 µM [inhibitor, partial curve, poor fit]
O=C1N[C@@H](Cc2c[nH]c3ccccc23)COC(=O)[C@@H](Cc2ccc(F)cc2)CC/C=C/C[C@@H]1CC(=O)N(CCO)Cc1ccccc1	inconclusive: 31.6 µM [inhibitor, single point]
Cc1c(Cl)cccc1NC(=O)C1CCCN(C(=O)c2cnn(-c3ccccc3)c2-n2cccc2)C1 (stereo not given)	inconclusive: 35.5 µM [inhibitor, single point]
Nc1ccc(-c2nc3ccc(C(=O)O)cc3s2)cc1	active: 1.41 µM
COCCNC(=O)C(c1ccc(C)cc1)N(C(=O)C(=O)NC1CCCC1)c1ccc2c(c1)OCCO2 (stereo not given)	inconclusive: 0.844 µM [inhibitor, partial curve, poor fit]
N#Cc1ccccc1OCC(=O)Nc1c(C(=O)C2CC2)oc2ccccc12	inconclusive: 28.2 µM [inhibitor, single point]
COc1ccc(C(=O)Nc2ccccc2-c2nnn(CC(N)=O)n2)cc1	inconclusive: 14.1 µM [inhibitor, partial curve, poor fit]
CC(/C=C/c1ccccc1)=N/NC(=O)CNC(=O)c1ccccc1F	inconclusive: 37.7 µM [inhibitor, partial curve, poor fit]
CON(C)C(=O)N1N=C(c2cc(F)ccc2F)S[C@]1(CCCN)c1ccccc1	inconclusive: 54.4 µM [inhibitor, partial curve, poor fit]
CCOC(=O)c1cc(-c2ccc(OC)cc2)n(CCC(=O)NCc2ccccc2OC)c1C	inconclusive: 35.5 µM [inhibitor, single point]
CCCc1ccc(C2=Nn3c(nnc3C(C)C)SC2)cc1	inconclusive: 31.6 µM [inhibitor, single point]
CS(=O)(=O)c1nc(-c2ccc(F)cc2)cc(C(F)(F)F)n1	inconclusive: 39.8 µM [inhibitor, single point]
CC(C)Cn1c(N)c(C(=O)COC(=O)/C=C/c2cccs2)c(=O)n(C)c1=O	inconclusive: 20 µM [inhibitor, partial curve]
COc1cc(S(=O)(=O)Nc2ccc(C)cc2)ccc1N=Cc1c(C)c(C#N)c(=O)n(C)c1O	inconclusive: 20 µM [inhibitor, partial curve, poor fit]
O=C(c1ccc(CS(=O)c2ccccc2Cl)o1)N1CCN(c2ccccc2)CC1 (stereo not given)	inconclusive: 2.51 µM [inhibitor, partial curve, poor fit]
O=C(NCCc1cccs1)c1ccc(Cn2c(SCc3ccccc3)nc3cccnc32)cc1	inactive
O=C(Nc1ccc(-c2nc3ccccc3s2)c(O)c1)C1=COCCO1	inconclusive: 39.8 µM [inhibitor, single point]
CCOc1ccc(NC(=S)Nc2ccc3nsnc3c2)cc1	inactive

SMILES	Potency
CC(C)(C)c1cnc(CSc2cnc(NC(=O)C3CCNCC3)s2)o1	active: 0.306 µM
O=C(CN1C(=O)c2ccccc2S1(=O)=O)Nc1ncccn1	inactive
COc1ccc(N(CC(=O)NCc2ccccc2Cl)S(=O)(=O)c2c(C)[nH]c(=O)[nH]c2=O)cc1	inactive
OC1(c2ccccc2)CC(c2ccccc2)c2ccccc2O1 (stereo not given)	inconclusive: 39.8 µM [inhibitor, partial curve, poor fit]
CCC1(C)Cc2c(sc3[nH]c(=S)n(Cc4ccccc4)c(=O)c23)CO1 (stereo not given)	inconclusive: 35.5 µM [inhibitor, single point]
COc1ccc(NC(=S)N(CCc2c(C)[nH]c3ccc(C)cc23)Cc2cccnc2)cc1	inconclusive: 22.4 µM [inhibitor, partial curve, poor fit]
CCc1nc2ccc(C(=O)Nc3cc(-c4ccccc4)ccc3OC)cn2c1N(C=O)CCC(C)C	inconclusive: 25.1 µM [inhibitor, single point]
Cc1cccc(NC(=O)CSc2nc3c([nH]c4ccccc43)c(=O)n2C)c1	inconclusive: 25.1 µM [inhibitor, partial curve, poor fit]
COc1ccc2c(Sc3ccc(Cl)cc3)c(C(=O)NCCCN3CCCCC3)[nH]c2c1	active: 25.1 µM
O=c1[nH]c(-c2ccccn2)nc2sc(-c3ccccc3)cc12	inconclusive: 4.74 µM [inhibitor, full curve, poor fit]
O=C(NCCn1cc(SCc2ccc(F)cc2)c2ccccc21)c1ccccc1F	inconclusive: 29.9 µM [inhibitor, single point]
CCc1cccc(CC)c1NC1=NS(=O)(=O)c2ccccc21	inactive
Cc1ccc([C@H]2C[C@H](O)[C@@H](n3cc(COC(=O)c4ccccc4)nn3)CN2Cc2cccs2)cc1	inconclusive: 39.8 µM [inhibitor, single point]
NC(c1csc(NC(=O)Nc2cccc(Cl)c2)n1)c1ccccc1Cl (stereo not given)	inconclusive: 39.8 µM [inhibitor, single point]
CC(=O)Nc1ccc(NC(=O)C2Cc3c(-c4ccc(Cl)cc4)ccnc3O2)cc1 (stereo not given)	inactive
CCc1ccccc1Nc1nn2c(=O)c3ccc(C(=O)Nc4cc(C)cc(C)c4)cc3nc2s1	inconclusive: 14.1 µM [inhibitor, partial curve]
Cc1cc([N+](=O)[O-])ccc1NCc1ccc2c(c1)OCCO2	inactive
COc1ccccc1-c1nn(CCC(=O)Nc2cccc(C(C)=O)c2)c2nc(C)cc(C)c12	inconclusive: 39.8 µM [inhibitor, single point]
C/C(=N/Nc1nc(C)cc(-c2ccccc2)n1)c1ccco1	inactive
COC(=O)c1ccccc1NC(=O)N1CCN(c2ccccc2)CC1	inconclusive: 0.752 µM [inhibitor, partial curve, poor fit]

Source: PubChem BioAssay AID1745845 (National Center for Advancing Translational Sciences (NCATS), 2022)
